Measurements from PubChem BioAssay AID1745853 (National Center for Advancing Translational Sciences (NCATS), 2022).
The other results are listed elsewhere or left out. These are further read-outs of the screen, such as a control signal, another cell line or another target. No call is given for them.

Columns and labels:
Experiment in all cases: Primary Screen for Target Class Profiling of Small Molecule Inhibitors of Methyltransferases
[1] = target: Glycine N-methyltransferase (Homo sapiens) (UniProt Q14749); conditions: purified enzyme, MTase-Glo SAH luminescence; measured here: GNMT inhibition; at 40 µM; stronger effect = lower value
Procedure, shortened: (§1)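 Each enzyme was reacted with SAM and its substrate, with compounds tested once at 40 uM; SAH formed was read by MTase-Glo luminescence.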

[2] = target: Guanidinoacetate N-methyltransferase (Homo sapiens) (UniProt Q14353); conditions: purified enzyme, MTase-Glo SAH luminescence; measured here: GAMT inhibition; at 40 µM; stronger effect = lower value
Procedure, shortened: as §1

[3] = target: Histamine N-methyltransferase (Homo sapiens) (UniProt P50135); conditions: purified enzyme, MTase-Glo SAH luminescence; measured here: HNMT inhibition; at 40 µM; stronger effect = lower value
Procedure, shortened: as §1

[4] = target: Nicotinamide N-methyltransferase (Homo sapiens) (UniProt P40261); conditions: purified enzyme, MTase-Glo SAH luminescence; measured here: NNMT inhibition; at 40 µM; stronger effect = lower value
Procedure, shortened: as §1

[5] = target: Phenylethanolamine N-methyltransferase (Homo sapiens) (UniProt P11086); conditions: purified enzyme, MTase-Glo SAH luminescence; measured here: PNMT inhibition; at 40 µM; stronger effect = lower value
Procedure, shortened: as §1
% is scaled to controls: 0 for no effect and ±100 for the full control effect.

SMILES: CCCn1c(=O)c2ccc(Cl)cc2n2c(=O)n(CC(=O)NCc3ccccc3)nc12
- activity change, negative = inhibition [1]: -0.227%
- activity change, negative = inhibition [2]: 0%
- activity change, negative = inhibition [3]: 3.95%
- activity change, negative = inhibition [4]: 0.664%
- activity change, negative = inhibition [5]: 2.34%

SMILES: CC(C)c1ccc(NS(=O)(=O)c2ccc3[nH]c4c(c3c2)CCCC4)cc1
- activity change, negative = inhibition [1]: 2.41%
- activity change, negative = inhibition [2]: 4.72%
- activity change, negative = inhibition [3]: 1.57%
- activity change, negative = inhibition [4]: -7.36%
- activity change, negative = inhibition [5]: 1.79%

SMILES: CCCCN(CC)CCN1C(=O)c2cc3occc3n2CC1(C)C(=O)NC1CCCCCCC1 (stereo not drawn)
- activity change, negative = inhibition [1]: 4.53%
- activity change, negative = inhibition [2]: 0%
- activity change, negative = inhibition [3]: -5.43%
- activity change, negative = inhibition [4]: 0.237%
- activity change, negative = inhibition [5]: -1.54%

SMILES: FC(F)(F)c1ccc(N2C3CCC2CN(Cc2ccc(-c4ccccc4)cc2)C3)cc1
- activity change, negative = inhibition [1]: -4.97%
- activity change, negative = inhibition [2]: -12.3%
- activity change, negative = inhibition [3]: -1.38%
- activity change, negative = inhibition [4]: -12%
- activity change, negative = inhibition [5]: -5.91%

SMILES: Cc1ccc(CNC(=O)c2cc3n(n2)CC(C)(C(=O)NC2CCCCCC2)N(C)C3=O)o1 (stereo not drawn)
- activity change, negative = inhibition [1]: -5.44%
- activity change, negative = inhibition [2]: 0%
- activity change, negative = inhibition [3]: -3.29%
- activity change, negative = inhibition [4]: -4.3%
- activity change, negative = inhibition [5]: -6.94%

SMILES: CCC(C)NC(=O)c1ccc2c(=O)n(C)c3nn(Cc4ccc(F)cc4)c(=O)n3c2c1 (stereo not drawn)
- activity change, negative = inhibition [1]: 1.16%
- activity change, negative = inhibition [2]: 1.1%
- activity change, negative = inhibition [3]: 5.87%
- activity change, negative = inhibition [4]: -0.465%
- activity change, negative = inhibition [5]: 1.88%

SMILES: CCOC(=O)c1cc2n(n1)CC(C)(C(=O)NCc1ccccc1)N(Cc1cccc(C)c1)C2=O (stereo not drawn)
- activity change, negative = inhibition [1]: -0.132%
- activity change, negative = inhibition [2]: 1.95%
- activity change, negative = inhibition [3]: 0.998%
- activity change, negative = inhibition [4]: -0.811%
- activity change, negative = inhibition [5]: -3.71%

SMILES: Cn1c(C(=O)N2CCN(c3ccccn3)CC2)nc2nc(-c3ccccc3)c(Cl)cc21
- activity change, negative = inhibition [1]: -9.07%
- activity change, negative = inhibition [2]: -4.92%
- activity change, negative = inhibition [3]: -6.89%
- activity change, negative = inhibition [4]: -11.9%
- activity change, negative = inhibition [5]: -3.97%

SMILES: CC1(C(=O)NC2CCCCCC2)Cn2c(cc3occc32)C(=O)N1Cc1ccc(F)cc1 (stereo not drawn)
- activity change, negative = inhibition [1]: -2.42%
- activity change, negative = inhibition [2]: 0%
- activity change, negative = inhibition [3]: 3.33%
- activity change, negative = inhibition [4]: -10.6%
- activity change, negative = inhibition [5]: -1.59%

SMILES: CC1(C(=O)NCc2ccccc2)Cn2cnc(C(=O)NCc3ccccc3F)c2C(=O)N1C1CC1 (stereo not drawn)
- activity change, negative = inhibition [1]: -2.02%
- activity change, negative = inhibition [2]: 0%
- activity change, negative = inhibition [3]: -2.79%
- activity change, negative = inhibition [4]: -1.21%
- activity change, negative = inhibition [5]: 1.48%

SMILES: C#Cc1cccc(Nc2ncnc3cc(OC)c(OC)cc23)c1
- activity change, negative = inhibition [2]: -22.8%
- activity change, negative = inhibition [4]: -29.9%
- activity change, negative = inhibition [5]: -32.5%

SMILES: COCC(=O)N1CC(C(=O)NCc2ccncc2)C2(CCOCC2)C1 (stereo not drawn)
- activity change, negative = inhibition [1]: 0.631%
- activity change, negative = inhibition [2]: -0.09%
- activity change, negative = inhibition [3]: 1.79%
- activity change, negative = inhibition [4]: 1.02%
- activity change, negative = inhibition [5]: -3.64%

SMILES: CCC(=O)c1cc(-c2ccc(Cl)cc2)n(-c2ccc(S(N)(=O)=O)cc2)c1C
- activity change, negative = inhibition [1]: -4.08%
- activity change, negative = inhibition [2]: -7.65%
- activity change, negative = inhibition [3]: -4.73%
- activity change, negative = inhibition [4]: -34.6%
- activity change, negative = inhibition [5]: -11.7%

SMILES: CC1CC(C)CN(CCCNC(=O)C2(C)Cn3c(cc4ccccc43)C(=O)N2Cc2cccs2)C1 (stereo not drawn)
- activity change, negative = inhibition [1]: 1.37%
- activity change, negative = inhibition [2]: 0.315%
- activity change, negative = inhibition [3]: -1.47%
- activity change, negative = inhibition [4]: 2.82%
- activity change, negative = inhibition [5]: -0.792%

SMILES: COc1ccc(-c2ccc3nnc(CNC(=O)c4ccoc4)n3n2)cc1
- activity change, negative = inhibition [1]: -10.3%
- activity change, negative = inhibition [2]: -1.83%
- activity change, negative = inhibition [3]: -2.97%
- activity change, negative = inhibition [4]: -2.08%
- activity change, negative = inhibition [5]: 1.69%

SMILES: CCCn1c(=O)c2ccc(C(=O)NC(C)C)cc2n2c(SCC(=O)c3ccc(OC)cc3)nnc12
- activity change, negative = inhibition [1]: -0.983%
- activity change, negative = inhibition [2]: 1.72%
- activity change, negative = inhibition [3]: -5.44%
- activity change, negative = inhibition [4]: 3.35%
- activity change, negative = inhibition [5]: 0.2%

SMILES: O=c1c2ccccc2n2c(=O)n(Cc3ccc(Cl)cc3)nc2n1Cc1ccc(F)cc1
- activity change, negative = inhibition [1]: 0.231%
- activity change, negative = inhibition [2]: 5.4%
- activity change, negative = inhibition [3]: 3.67%
- activity change, negative = inhibition [4]: 3.42%
- activity change, negative = inhibition [5]: 1.38%

SMILES: COc1ccc(CNC(=O)c2ncn3c2C(=O)N(C2CC2)C(C)(C(=O)NCc2ccc(F)cc2)C3)cc1 (stereo not drawn)
- activity change, negative = inhibition [1]: 0.743%
- activity change, negative = inhibition [2]: 1.01%
- activity change, negative = inhibition [3]: 11.7%
- activity change, negative = inhibition [4]: 7.39%
- activity change, negative = inhibition [5]: 5.32%

SMILES: OC[C@H]1O[C@@H](O[C@H]2[C@H](O)[C@@H](CO)O[C@@H](OCc3ccccc3)[C@@H]2O[C@@H]2OC[C@](O)(CO)[C@H]2O)[C@H](O)[C@@H](O)[C@@H]1O
- activity change, negative = inhibition [1]: 3.78%
- activity change, negative = inhibition [2]: 8.49%
- activity change, negative = inhibition [3]: 7.57%
- activity change, negative = inhibition [4]: -4.32%
- activity change, negative = inhibition [5]: 5.3%
